PubChem BioAssay AID504832 (National Center for Advancing Translational Sciences (NCATS), 2011)
Among all 310,000 compounds or so, about 18,000 (5.8%) were called active. Inconclusive results, whose numbers are uncertain, are shown with a selection of clear calls. Calls come from the whole dose curve; as a rule, active = well fitted inhibition curve with a large enough effect; inconclusive = small, poorly fitted or top-dose-only effect, or another doubt; inactive = no such curve, though single readings can be large or run the other way. No potency is given beside an inconclusive call; the fits are too rough.
Potency is the fitted concentration of half-maximal effect; tags give direction and shape of the fitted curve.

Assay: Primary qHTS for delayed death inhibitors of the malarial parasite plastid, 48 hour incubation
Settings: P. falciparum luciferase growth in erythrocytes; series mostly up to 28.7 µM
In short: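 Compounds are pin-transferred into medium, infected erythrocytes (2% hematocrit, 0.1% parasitemia final) are added, and plates sit one parasite generation at 37 C in 5% CO2. Detection reagent is then added and luminescence measured.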
For `COc1cc(OC)c(OC)cc1CNc1cc(C)ccc1OC`, the Potency was inconclusive [inhibitor, single point].
With `Nc1c(Cl)cc(-c2cn(CCC(=O)O)c(-c3ccncc3)n2)cc1Cl` the Potency was inconclusive [inhibitor, partial curve, poor fit].
For `C=CCC1CCCC(=O)N2CC[C@H](O)C12` (some centres undefined), the Potency was “inactive”.
With `CCCOc1ccc(C(=O)NNC(=S)NC(C)=O)cc1` the Potency was inconclusive [inhibitor, full curve].
In the case of `O=C(CSc1ccsc1[N+](=O)[O-])NCc1ccco1`, the Potency is reported as active: 11.7 µM.
For `Cc1c(CCC(=O)O)c(=O)oc2cc3occ(-c4ccc(Cl)cc4)c3cc12`, the Potency was inconclusive [inhibitor, single point].
In the case of `O=C1CN(C(=O)CSc2nc(-c3ccc(Cl)cc3)cs2)c2ccccc2N1`, the Potency is reported as inconclusive [inhibitor, partial curve].
For `Cc1cc(S(=O)(=O)N2CCCC2)ccc1OCC(=O)NCc1ccccc1`, the Potency was inconclusive [inhibitor, single point].
In the case of `O=C(/C=C/c1ccc(Cl)c(C(F)(F)F)c1)N1CCN(c2ccccn2)CC1`, the Potency is reported as “inactive”.
In the case of `CCCn1c2ccc(F)cc2c2nnc(NN)nc21`, the Potency is reported as inconclusive [inhibitor, full curve].
With `O=C(NC1CCN(Cc2ccccc2)CC1)c1cccc(OC(F)F)c1` the Potency was inconclusive [inhibitor, single point].
For `CCOc1ccccc1NC(=O)/C(C#N)=C/c1c(C)nn(-c2ccc(F)cc2)c1Cl`, the Potency was “inactive”.
With `CCc1ccc(NC(=S)N2CCNC(=O)C2CC(=O)OC)cc1` (centres undefined) the Potency was “inactive”.
In the case of `O=C(N[C@H]1CCCCNC1=O)c1cc(COc2ccc(F)cc2F)on1`, the Potency is reported as “inactive”.
In the case of `COc1ccc(NC(=O)COc2coc(CN3CCN(c4ccccc4)CC3)cc2=O)cc1`, the Potency is reported as inconclusive [inhibitor, partial curve].
For `O=S(=O)(NC1CCCCCCC1)c1ccccc1`, the Potency was “inactive”.
In the case of `Cc1ccc(CNC(=O)C(NS(=O)(=O)c2cccc3nsnc23)c2ccccc2)cc1` (centres undefined), the Potency is reported as inconclusive [inhibitor, partial curve, poor fit].
In the case of `COc1ccc2c(CN3CC=C(c4ccccc4)CC3)cc(=O)oc2c1`, the Potency is reported as inconclusive [inhibitor, partial curve, poor fit].
With `CN1CCN(C(=O)C23CC4CC(CC(C4)C2)C3)CC1` the Potency was inconclusive [inhibitor, partial curve, poor fit].
With `C#CCOCCOCCOCCNc1nc(N2CCN(C(=O)Cn3cc(CCCN=C(N)N)nn3)CC2)nc(N2CCN(C(=O)[C@H](C(C)C)n3cc(CCO)nn3)CC2)n1` the Potency was “inactive”.
With `Cc1cc(C)cc(CN2CCC(Oc3ccc(C(=O)N4CCCC4)cc3)CC2)c1` the Potency was active: 11.7 µM.
With `CCC(=O)Nc1ccc(-c2nnc(SCC(=O)Nc3nccs3)n2C)cc1` the Potency was “inactive”.
For `COc1cccc(C(=O)NCC(=O)N2CCN(c3ccc(C(F)(F)F)cn3)CC2)c1`, the Potency was inconclusive [inhibitor, single point].
With `COc1cc(-c2nnc3n2N=C(c2ccccc2)CS3)cc(OC)c1OC` the Potency was inconclusive [inhibitor, partial curve].
With `COC(=O)C1=C(c2ccc(C(C)=O)cc2)C[C@@H]2CC[C@H]1N2C(=O)NCc1ccc(F)cc1` the Potency was inconclusive [inhibitor, single point].
With `CCOc1ccc(OCC)c(NC(=O)CSc2nc3ccccc3c(=O)n2C)c1` the Potency was “inactive”.
In the case of `O=C1N(Cc2cccnc2)C[C@@H]2C[C@@H](c3cccc(C(F)(F)F)c3)N3CCC[C@@]123`, the Potency is reported as inconclusive [inhibitor, single point].
In the case of `COc1ccc(-c2csc(NC(=O)C3CCCCN3S(=O)(=O)c3ccccc3)n2)cc1` (centres undefined), the Potency is reported as inconclusive [inhibitor, partial curve, poor fit].
With `COc1ccc(NC(=S)NC(NC(=O)c2cccc(Cl)c2)C(Cl)(Cl)Cl)c([N+](=O)[O-])c1` (centres undefined) the Potency was active: 3.29 µM.
For `CCn1c(=O)n(CC(=O)NCC2CCCO2)c(=O)c2c3c(sc21)COC(C)(C)C3` (centres undefined), the Potency was “inactive”.
For `CCOC(=O)N1CCN(S(=O)(=O)c2ccc(C(=O)N(CCCN(C)C)c3nc4ccc(CC)cc4s3)cc2)CC1`, the Potency was active: 6.57 µM.
With `CC(C)C(=O)N1CCN(c2ccccc2NC(=O)c2cccc(Cl)c2)CC1` the Potency was inconclusive [inhibitor, partial curve, poor fit].
In the case of `CC(C)(C)c1cnnn1-c1ccc(-c2csc(N)n2)cc1`, the Potency is reported as inconclusive [inhibitor, single point].
With `Cc1cc(C)cc(NC(=O)CSc2nnc(Cc3cccn3C)n2-c2ccc(F)cc2)c1` the Potency was inconclusive [inhibitor, partial curve, poor fit].
For `CCCc1nc(SCC(=O)NNC(=O)c2ccc(OC)cc2)c2ccccc2n1`, the Potency was inconclusive [inhibitor, single point].
For `CCCc1nc2ccccc2c(C(=O)OC2CCOC2=O)c1CC` (centres undefined), the Potency was “inactive”.
For `CN1CCC(N(C)c2nc(-c3ccccc3)nc3ccccc23)CC1`, the Potency was inconclusive [inhibitor, single point].
With `COc1ccc(NC(=O)CCNC(=O)c2ccco2)cc1Cl` the Potency was “inactive”.
With `CCOc1ccc(NC(=S)NCCCN2CCN(c3ccc(OC)cc3)CC2)cc1` the Potency was inconclusive [inhibitor, single point].
For `COC(=O)COc1ccc2c(=O)c(-c3ccccc3OC)coc2c1`, the Potency was “inactive”.
For `CC(C)(C)CC(=O)Nc1nnc(SCC(=O)NC2CCCC2)s1`, the Potency was inconclusive [inhibitor, partial curve].
With `CCC(C)N(C(=O)Cn1nnc2ccccc21)C(C(=O)Nc1ccc(F)cc1)c1cccc(OC)c1` (centres undefined) the Potency was inconclusive [inhibitor, partial curve, poor fit].
For `COc1ccc(C2c3ccc(O)cc3Oc3ncn4nc(-c5cccnc5)nc4c32)cc1OC` (centres undefined), the Potency was active: 5.22 µM.
For `Cc1cccc(Nc2nc(NCc3ccco3)nc(N3CCOCC3)n2)c1`, the Potency was inconclusive [inhibitor, single point].
For `Cc1nn(-c2ccccn2)c(N)c1N=O`, the Potency was inconclusive [inhibitor, single point].
In the case of `CS(=O)(=O)N1N=C(c2ccc3nccnc3c2)CC1c1ccccc1` (centres undefined), the Potency is reported as inconclusive [inhibitor, single point].
For `CC1=CC(=O)C2=C(C)C[C@H](O)[C@@H]3[C@H](OC(=O)[C@H]3C)[C@@H]12`, the Potency was inconclusive [inhibitor, single point].
For `Cc1cc(Cl)cc(Br)c1OCCCNCC(C)O` (centres undefined), the Potency was inconclusive [inhibitor, single point].
For `O=C(C(Cc1ccccc1)N1C(=O)c2ccccc2C1=O)N1c2ccccc2CCc2ccccc21` (centres undefined), the Potency was inconclusive [inhibitor, single point].
With `O=C1NC(=O)N(Cc2ccc(F)cc2)C(=O)/C1=C/c1cccs1` the Potency was “inactive”.
For `CCCC1=C(C(=O)OCC)C(c2ccc(N(C)C)cc2)n2ncnc2N1` (centres undefined), the Potency was inconclusive [inhibitor, single point].
In the case of `O=C(Cc1ccccc1)Nc1ccc(NC(=O)c2cccs2)cc1Cl`, the Potency is reported as “inactive”.
With `CCOC(=O)N1CCN(CC(=O)Nc2c(C(=O)OC)[nH]c3cc(C)ccc23)CC1` the Potency was inconclusive [inhibitor, partial curve].
In the case of `CCCCc1ccc(-c2nc(N)n[nH]2)cc1`, the Potency is reported as “inactive”.
With `Oc1cc(-c2ccccc2)c2ccccc2c1` the Potency was inconclusive [inhibitor, partial curve].
In the case of `COc1cccc(CN2CCNC(=O)C2CC(=O)NCCCN2CCCC2=O)c1` (centres undefined), the Potency is reported as “inactive”.
With `CN(C(=O)CSc1nnc(CN2CCCC2)n1Cc1ccccc1)c1ccccc1` the Potency was active: 11.7 µM.
In the case of `CC(C)=NNc1nc(-c2ccccc2)c(C)s1`, the Potency is reported as inconclusive [inhibitor, partial curve].
In the case of `O=C(c1ccccc1Oc1ccccc1)N1CCN(c2ccc(F)cc2)CC1`, the Potency is reported as inconclusive [inhibitor, partial curve, poor fit].
With `CC(C)(C)[C@@H]1C=C(C(=O)Nc2ccccc2)O[C@H](OCc2ccc(CO)cc2)C1` the Potency was inconclusive [inhibitor, full curve, poor fit].
For `CCC(C)OC(=O)C1=C(C)NC2=C(C(=O)C(C(=O)OC)C(C)C2)C1c1ccc(N(C)C)cc1` (centres undefined), the Potency was inconclusive [inhibitor, partial curve, poor fit].
For `CCc1ccc(OCC(=O)N/N=C(\C)c2ccccc2OC(F)F)cc1`, the Potency was inconclusive [inhibitor, single point].
In the case of `CCc1cccc(Nc2cc(C)nc3ncnn23)c1`, the Potency is reported as inconclusive [inhibitor, single point].
For `O=C(CCc1nnc(Cc2ccc(-c3ccccc3)cc2)o1)N1CCCC1`, the Potency was inconclusive [inhibitor, single point].
In the case of `CCc1ccc(OCC(=O)N2CC(C(N)=O)Oc3ccccc32)cc1` (centres undefined), the Potency is reported as inconclusive [inhibitor, single point].
With `Cc1ccc(-c2noc(-c3ccccc3Br)n2)cc1` the Potency was “inactive”.
With `CN(C)C(CNC(=O)c1cccc(S(=O)(=O)N(C)C)c1)c1ccccc1` (centres undefined) the Potency was “inactive”.
For `CN(C)c1ccc(-c2nc3ccccc3n2C)cc1`, the Potency was “inactive”.
With `CC(=O)Oc1ccc2ccccc2c1C(NC(=O)C(C)C)c1cccc([N+](=O)[O-])c1` (centres undefined) the Potency was active: 1.85 µM.
